# Data taken from PubChem BioAssay AID743279 (National Center for Advancing Translational Sciences (NCATS), 2014).
# Among all 360,000 compounds or so, about 17,000 (4.7%) were called active. Inconclusive means that the source gave no clear call. Such entries were picked first, then a sample of the others. Rule as the data show it: active = activity change below about -50%; inconclusive = mostly about -30% to -49%; inactive = weaker than that.
# Experiment: qHTS for Inhibitors of Inflammasome Signaling: IL-1-beta AlphaLISA Primary Screen
# Conditions: THP-1 LPS/ATP IL-1B secretion, 16 h; at 57.5 µM, active compounds read low
# Method in brief: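 Secreted IL-1B measured by AlphaLISA bead assay after 16 h compound exposure of THP-1 cells; compounds (final up to 57.5 uM) added 1 h before LPS (250 ng/mL) and ATP (1.25 mM) stimulation; lower signal means less secretion.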
# % is scaled to controls: 0 for no effect and ±100 for the full control effect.
row,Structure (SMILES),activity change
1,Cc1[nH]c(=O)[nH]c(=O)c1CSCC(=O)OCC(=O)c1ccc(Br)cc1,inconclusive: -47.1%
2,Cc1ccc2c(C)c(C(=O)N3CCN(c4cnccn4)CC3)oc2c1C,active: -62.9%
3,CN(C)c1cccc2c1C(=O)c1ccccc1C2=O,inconclusive: -35.4%
4,COc1ccc(Cl)cc1Cn1c(C)c(C(=O)NCc2cccc([N+](=O)[O-])c2)sc1=O,inconclusive: -48.9%
5,COc1ccc(F)cc1S(=O)(=O)NC(Cc1ccccc1)C(N)=O (stereo not drawn),inconclusive: -43.5%
6,O=C(NC(Cc1ccccc1)C(=O)O)OCc1ccccc1 (stereo not drawn),inactive: 16.8%
7,CCCc1nc(SCC(=O)c2ccc(F)cc2)c2ccccc2n1,inconclusive: -48.6%
8,C/C(=N\NC(=O)c1ccccc1F)c1ccc(C#N)cc1,inconclusive: -38%
9,COc1cccc(NC(=O)C2(C)CCN2Cc2ccc(SC)cc2)c1 (stereo not drawn),inactive: 16.8%
10,CC(C)(C)c1ccc(/C=C/C(=O)Nc2ccncc2)cc1,inconclusive: -30.9%
11,O=C(/C=C/c1cccc(Cl)c1)N1CCC(Cc2ccccc2)CC1,inconclusive: -39.7%
12,CCn1ccc(C(=O)NC2=NCCS2)n1,inactive: 0%
13,N#Cc1cc2c(=O)n3ccccc3nc2n(CCCn2ccnc2)c1=N,inconclusive: -32.1%
14,C/C(=N\NC(=O)c1ccncc1)c1cccc(NC(=O)c2ccc(C(C)(C)C)cc2)c1,inconclusive: -45.6%
15,CC1(C)Cc2ccccc2C2CC(O)C(=O)N21 (stereo not drawn),inactive: -1.13%
16,CCOC(=O)c1c(C)n(C)c2ccc(OC)c(NC(=O)CCN3CCSCC3)c12,inactive: 28.8%
17,O=C1CC(N2CCC(c3nc4ccccc4o3)CC2)C(=O)N1c1ccc(Cl)c(C(F)(F)F)c1 (stereo not drawn),inconclusive: -46.1%
18,CC(C)(C)NC(=O)C(=O)NNC(=O)c1ccc(C(C)(C)C)cc1,inactive: 14%
19,COCc1[nH]nc2c1C(c1ccsc1)C(C#N)=C(N)O2 (stereo not drawn),inactive: -21.2%
20,OC(CN1c2ccccc2Sc2ccccc21)Cn1nnc2ccccc21 (stereo not drawn),inconclusive: -39.8%
21,COCCNC(=O)C1(C)CCCN(C(=O)c2cccc(OC(F)(F)F)c2)C1 (stereo not drawn),inactive: -2.99%
22,Cc1ccc(C(=O)Nc2ccc3c(c2)CCC3)cc1,inconclusive: -32%

row,Structure (SMILES),activity change
1,Cn1cc(/C=N\O)nc2c(=O)n(-c3ccccc3)c(=O)nc1-2,inactive: -3.93%
2,O=C(NC1CCCC1)c1ncn[nH]1,inactive: 15.2%
3,CCc1nc(SCC(=O)N2c3ccccc3Sc3ccccc32)c2ccccc2n1,inconclusive: -37.3%
4,Cc1ccc(/C=N/NC(=O)c2ccccc2OCc2cccc(Br)c2)o1,active: -99.4%
5,CN(CC(=O)Nc1cccc(S(=O)(=O)N2CCCC2)c1)CC(=O)Nc1ccc(Cl)c(C(F)(F)F)c1,active: -65.9%
6,CC1(C(=O)NS(=O)(=O)c2ccc3c(c2)CCO3)CCN1C(=O)CCC1CCCC1 (stereo not drawn),inactive: 29.1%
7,Cc1ccc(C(=O)NCCc2c[nH]c3ccccc23)c(C)c1,inactive: -10.2%
8,CC1Oc2ccccc2C=C1/C=N/NC(=O)c1ccccc1O (stereo not drawn),inconclusive: -42.6%
9,CCCCN(CCCC)CCCNC(=O)C1CC(c2ccc(C(F)(F)F)cc2)=NO1 (stereo not drawn),inconclusive: -41.3%
10,CCOC(=O)C1(C)/C(=N/Nc2ccccc2OC)C(=O)C(=O)N1c1ccccc1 (stereo not drawn),inactive: 2.03%
11,Cc1sc2ncnc(NCC(C)(C)N3CCOCC3)c2c1C,inconclusive: -32.4%
12,CN(C)c1ccc(CNC(=O)C2(C)Cc3c(-c4ccccc4)ccnc3O2)cc1 (stereo not drawn),inconclusive: -30%
13,CCOC(=O)COn1c(=O)c(-c2ccco2)[n+]([O-])c2ccccc21,active: -69%
14,Cn1c(=O)n(Cc2ccccc2Cl)c2ccccc21,inactive: 26.8%
15,Cc1cc(C)nc(NS(=O)(=O)c2ccc(NC(=O)c3cccs3)cc2)n1,inactive: 11.8%
16,CCOc1ccc(CNC(=O)c2ccc(Sc3ccc(Cl)cc3)c(NC(C)=O)c2)cc1,inconclusive: -44.1%
17,CCOC(=O)[C@]12CCCC=C1N(Cc1ccccc1)C(=O)[C@H](CC(=O)N1CCN(C(=O)c3ccco3)CC1)C2,inactive: 1.77%
18,COc1ccc2c(CN3CCCCCCC3)cc(=O)oc2c1,inactive: 47.6%
19,C[C@@H]1CN([C@H](C)CO)C(=O)c2cc(Br)cnc2O[C@@H]1CN(C)C(=O)C1CCOCC1,inactive: 23.8%
20,COc1ccc(CNC(=O)C(c2ccc(C)o2)N(Cc2cccs2)C(=O)Cc2cccs2)cc1 (stereo not drawn),inconclusive: -32.5%
21,O=C(CCl)N(CCCNC(=O)C(F)(F)F)c1ccc([N+](=O)[O-])cc1,active: -101%
22,COCc1[nH]nc2c1C(c1ccc(F)cc1F)C(C#N)=C(N)O2 (stereo not drawn),inconclusive: -48.9%

row,Structure (SMILES),activity change
1,Cc1cccc(C)c1NC(=S)N(Cc1ccco1)C1CCN(C(C)C)CC1,inactive: -3.93%
2,Cc1ccc(-n2nc3c(N4CCC(C(=O)N5CCN(C)CC5)CC4)nnc(C)c3c2C)cc1,inactive: -18.1%
3,O=C(NCCCN1CCOCC1)c1cn(-c2ccccc2)nc1-c1ccc(Br)cc1,inconclusive: -33%
4,CCCCCCn1cc(C(=O)OCC)c(=O)c2cc(F)c(F)cc21,inconclusive: -35.3%
5,O=C(Nc1ccc(OCC(=O)N2CCC(Cc3ccccc3)CC2)cc1)c1ccco1,inconclusive: -49.6%
6,CCOC(=O)c1sc(NC(=O)C2CCC2)cc1C,inconclusive: -33.9%
7,COc1cc(C(=O)NCC(=O)N/N=C/c2ccc(-c3ccc([N+](=O)[O-])cc3)o2)cc(OC)c1OC,inconclusive: -38.9%
8,O=C(NC1CCN(C(=O)N2c3ccccc3Sc3ccccc32)CC1)c1ccccc1Cl,active: -58.7%
9,CN(C(=O)c1cnc(N2CCN(c3ncccn3)CC2)c2ccccc12)c1ccc(Cl)cc1,active: -83.9%
10,COc1ccc(N2CC(C(=O)Nc3nc4ccccc4s3)CC2=O)cc1 (stereo not drawn),inconclusive: -32%
11,CCC(Sc1nc2sc(C(=O)OC)c(C)c2c(=O)n1N)C(=O)N(CC)CC (stereo not drawn),inactive: 9.21%
12,COc1cccc(N2CC(=O)N(c3cccc(OC)c3)CC2=O)c1,inactive: -4.78%
13,COC(=O)C(C)N1C(=O)S/C(=C\c2cc(C)n(-c3ccccn3)c2C)C1=O (stereo not drawn),inactive: 4.94%
14,Cc1ccccc1-n1ccnc1SCC(=O)O,inactive: -2.75%
15,CC(C)c1ccccc1-n1c(SCC(=O)N2CCN(c3ccccc3)CC2)nnc1-c1cccnc1,inconclusive: -40.6%
16,COC(=O)c1sccc1NC(=O)Nc1ccc(F)cc1F,inactive: -10.8%
17,Cc1cccc(C)c1NC(=O)CSc1nnc(-c2ccco2)c(-c2ccco2)n1,active: -76.6%
18,NS(=O)(=O)c1ccc(CCNC(=O)COC(=O)Cc2ccc(Cl)cc2)cc1,inactive: 23.3%
19,CCC(C)Cn1cnc2c(SCc3ccccc3F)nc(N)nc21 (stereo not drawn),active: -56.1%
20,O=C(c1ccc(N2CCN(C(=O)c3cccc(F)c3)CC2)cc1)c1cccc(F)c1,inconclusive: -34.7%
21,CCN(C(=O)[C@@H]1CCCN1C(=O)c1cccs1)c1nc2cc(Cl)ccc2s1,inconclusive: -33.4%
22,COc1ccccc1N1CCN(Cc2cc(=O)oc3cc(C)ccc23)CC1,inconclusive: -39.4%

row,Structure (SMILES),activity change
1,Cc1oc(-c2ccccc2Cl)nc1CSCC(=O)NC1CCCC1,inconclusive: -30.3%
2,COC(=O)[C@@H](NCc1ccc(B(O)O)cc1)C(C)C,inconclusive: -43.1%
3,Cc1ccccc1NC(=O)Cc1nc(COC(=O)c2cc(Br)ccc2O)cs1,inactive: 7.72%
4,Cc1ccc(-c2ccc(OC(=O)c3ccc(=O)[nH]c3)c(C)c2)cc1,inconclusive: -31.5%
5,CCN1CCN(S(=O)(=O)c2ccc(Cl)c(C(=O)N(C)Cc3cccc(OC)c3)c2)CC1,inconclusive: -48.3%
6,CN=C1S/C(=C\c2cccc(Cl)c2Cl)C(=O)N1C,inactive: -28.9%
7,O=C(Nc1ccc([N+](=O)[O-])cc1)Nc1ccc(Cl)cc1F,active: -92.7%
8,COc1cccc(CNC(=O)COC(=O)c2cc([N+](=O)[O-])ccc2N2CCCC2)c1,inconclusive: -30%
9,COc1ccc(CSC2=NCCN2)cc1Cl,inconclusive: -48.3%
10,O=C(Nn1c(-c2ccncc2)nc2ccccc2c1=O)c1ccc([N+](=O)[O-])cc1Cl,inactive: 16.3%
11,COc1ccc(C2CCCN2C(=S)Nc2cccc(Cl)c2)cc1OC (stereo not drawn),active: -87%
12,O=C(CN1CCOc2ccccc21)N1CCN(c2cccc(Cl)c2)CC1,inconclusive: -33.9%
13,CCCCCC(=O)N1C[C@H](O)[C@@H](n2cc(-c3ccc(F)cc3)nn2)C[C@@H]1c1ccc(OC)cc1,inconclusive: -33.5%
14,O=S(=O)(N/N=C/c1cccnc1)c1ccc(Cl)c(Cl)c1,inconclusive: -31.4%
15,CCc1ccc(OCC(=O)Nc2ncn[nH]2)cc1,inconclusive: -30.1%
16,Cc1cccc(C)c1NC(=O)C(c1ccc(C#N)cc1)n1c(=O)c(-c2ccco2)nc2ccccc21 (stereo not drawn),inconclusive: -39.7%
17,Fc1ccc(CSc2ccc3nnc(-c4cccnc4)n3n2)cc1,inconclusive: -48.9%
18,CN(c1ccc(C(=O)N2CCN(Cc3ccccc3)CC2)cc1)S(=O)(=O)c1ccccc1,inconclusive: -31.2%
19,Cc1cc(C)n(-c2nc3ccccc3nc2N2CCN(C(=O)c3ccc(Cl)cc3)CC2)n1,active: -58.7%
20,CNc1ccc(Oc2c(F)c(F)nc(F)c2F)cc1,inactive: -20%
21,COc1cc(C(=O)NNC(=O)c2ccc(NC(C)=O)cc2)cc(OC)c1OC,inactive: -7.91%
22,CCN(CC)S(=O)(=O)c1ccc2[nH]cc(C(=O)NCCC3=CCCCC3)c(=O)c2c1,inconclusive: -42.2%
